# Laboratory results reported in PubChem BioAssay (Tox21).
# Several values for one entry are separate records, joined by “and”; a condition that tells them apart may be missing. Identical values can stand only once. The inconclusive results got no clear call from the source; some entries with a clear call stand among them for comparison. For some assays here: A potency beside an inconclusive call is a rough fit, not a confirmed value. The source holds several records for some structures; these can differ, active in one and inactive in another. Activity calls are given as the source filed them. Unless noted, calls follow the shape of the dose curve; as a rule, active = well fitted curve in the direction sought with a large enough effect in the repeat runs; inconclusive = weak or mixed curves; inactive = no such curve, though single readings can be large; an effect the other way counts as inactive or inconclusive.
# Experiments:
# [1] = qHTS assay for identifying genotoxic compounds that show differential cytotoxicity against isogenic chicken DT40 cell lines with known DNA damage response pathways - wild type cell line (AID 743012); settings: DT40 wild type chicken cells viability, CellTiter-Glo, 40 h; activity change, negative = cytotoxicity: at 68.4 µM (top of the series) unless noted; also: nearly all actives have a fitted effect of over 60% in size; also: potency is read from the fitted curve at half-maximal effect; as to activity change, negative = cytotoxicity: % is scaled to controls: 0 for no effect and ±100 for the full control effect
# Outline: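 Parental DNA repair-proficient DT40 cells, 300 per well, were pre-incubated ~0.5 h at 37 C/5% CO2, pin-dosed with compounds in DMSO, then incubated 40 h. Viability was read as CellTiter-Glo luminescence after 30 min at room temperature.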
# [2] = qHTS assay to identify small molecule antagonists of the estrogen receptor alpha (ER-alpha) signaling pathway - cell viability counter screen (AID 743074; calls by dose curve;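 also: HEK293 cells carrying ER-alpha-UAS-bla reporter stimulated with 17beta-estradiol; nearly all actives have a fitted effect of over 45% in size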; also: potency is read from the fitted curve at half-maximal effect; as to activity, negative = cytotoxicity: % is scaled to controls: 0 for no effect and ±100 for the full control effect)
# [3] = qHTS assay to identify small molecule antagonists of the estrogen receptor alpha (ER-alpha) signaling pathway using the BG1 cell line (AID 743080; calls by dose curve;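 also: BG1 cells stimulated with 17beta-estradiol alongside compound; % is scaled to controls: 0 for no effect and ±100 for the full control effect; nearly all actives have a fitted effect of over 25% in size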); settings: BG1Luc4E2 ERE-luciferase antagonist mode, luminescence; activity change, negative = inhibition: at 70.3 µM (top of the series) unless noted
# Outline: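 Quantitative HTS on the Tox21 10K library: BG1 cells with endogenous ER-alpha and ERE-luciferase reporter, 17beta-estradiol stimulation, 21.5 h compound exposure, luminescence endpoint with parallel fluorescence cytotoxicity counter-read.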
# [4] = qHTS assay for identifying genotoxic compounds that show differential cytotoxicity against isogenic chicken DT40 cell lines with known DNA damage response pathways - Rev3 mutant cell line (AID 743014); settings: chicken DT40 Rev3-/- viability, CellTiter-Glo, 40 h; activity, negative = cytotoxicity: at 68.4 µM (top of the series) unless noted; also: nearly all actives have a fitted effect of over 55% in size; also: potency is read from the fitted curve at half-maximal effect; as to activity, negative = cytotoxicity: % is scaled to controls: 0 for no effect and ±100 for the full control effect
# [5] = target: Estrogen receptor (Homo sapiens) (UniProt P03372); test: qHTS assay to identify small molecule agonists of the estrogen receptor alpha (ER-alpha) signaling pathway using the BG1 cell line (AID 743079); settings: BG1Luc4E2 cells, ERE-luciferase agonist, 22 h; activation: at 70.3 µM (top of the series) unless noted; also: % is scaled to controls: 0 for no effect and ±100 for the full control effect; nearly all actives have a fitted effect of over 20% in size
# UniProt P03372, sequence (P03372 whole entry, looked up): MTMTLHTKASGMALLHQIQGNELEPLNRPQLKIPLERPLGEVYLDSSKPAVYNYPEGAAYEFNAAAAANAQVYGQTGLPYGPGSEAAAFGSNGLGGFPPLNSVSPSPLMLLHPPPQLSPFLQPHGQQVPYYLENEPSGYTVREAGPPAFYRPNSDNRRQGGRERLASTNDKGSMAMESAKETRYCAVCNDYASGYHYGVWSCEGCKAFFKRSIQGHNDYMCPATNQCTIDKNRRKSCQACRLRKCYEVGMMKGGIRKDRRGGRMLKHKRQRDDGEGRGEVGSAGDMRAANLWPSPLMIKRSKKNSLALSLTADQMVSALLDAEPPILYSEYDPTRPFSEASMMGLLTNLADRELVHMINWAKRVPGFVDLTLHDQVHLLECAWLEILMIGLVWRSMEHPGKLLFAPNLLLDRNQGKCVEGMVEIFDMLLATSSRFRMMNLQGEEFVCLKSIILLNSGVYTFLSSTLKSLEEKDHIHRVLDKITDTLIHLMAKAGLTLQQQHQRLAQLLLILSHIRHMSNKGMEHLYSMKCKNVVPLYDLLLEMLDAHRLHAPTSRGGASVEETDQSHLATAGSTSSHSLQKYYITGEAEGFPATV
# [6] = qHTS assay to identify aromatase inhibitors - cell viability counter screen (AID 743084); settings: MCF-7 aro ERE viability, CellTiter-Fluor, 24 h; activity change, negative = cytotoxicity: at 70.3 µM (top of the series);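 also: cells stimulated with testosterone during compound exposure; nearly all actives have a fitted effect of over 55% in size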; also: potency is read from the fitted curve at half-maximal effect
# [7] = qHTS assay to identify small molecule antagonists of the estrogen receptor alpha (ER-alpha) signaling pathway using the BG1 cell line - cell viability counter screen (AID 743081);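 also: compound given together with 17beta-estradiol as the ER stimulus; nearly all actives have a fitted effect of over 45% in size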; also: potency is read from the fitted curve at half-maximal effect; as to activity change, negative = cytotoxicity: % is scaled to controls: 0 for no effect and ±100 for the full control effect
# [8] = target: Estrogen receptor (Homo sapiens) (UniProt P03372); test: qHTS assay to identify small molecule agonists of the estrogen receptor alpha (ER-alpha) signaling pathway (AID 743075; calls by dose curve; also: potency is read from the fitted curve at half-maximal effect)
# [9] = qHTS assay for identifying genotoxic compounds that show differential cytotoxicity against isogenic chicken DT40 cell lines with known DNA damage response pathways - Rad54/Ku70 mutant cell line (AID 743015); settings: DT40 Rad54/Ku70 mutant viability, CellTiter-Glo, 40 h; activity change, negative = cytotoxicity: at 66.8 µM (top of the series); also: potency is read from the fitted curve at half-maximal effect; nearly all actives have a fitted effect of over 60% in size
# [10] = target: Androgen receptor (Homo sapiens) (UniProt P10275); test: qHTS assay to identify small molecule antagonists of the androgen receptor (AR) signaling pathway (AID 743035; active = well fitted inhibition curve with a large enough effect in the signal ratio in the repeat runs, not every such curve was filed as active; inconclusive = weak or mixed curves, or effect the other way; inactive = no such curve, though single readings can be large or run the other way; the % refers to the signal ratio; also: potency is read from the fitted curve at half-maximal effect); settings: HEK293 AR-UAS-bla, R1881-stimulated, beta-lactamase FRET, 16 h; activity change, negative = inhibition: at 58.5 µM (top of the series) unless noted
# UniProt P10275, sequence (P10275 whole entry, looked up): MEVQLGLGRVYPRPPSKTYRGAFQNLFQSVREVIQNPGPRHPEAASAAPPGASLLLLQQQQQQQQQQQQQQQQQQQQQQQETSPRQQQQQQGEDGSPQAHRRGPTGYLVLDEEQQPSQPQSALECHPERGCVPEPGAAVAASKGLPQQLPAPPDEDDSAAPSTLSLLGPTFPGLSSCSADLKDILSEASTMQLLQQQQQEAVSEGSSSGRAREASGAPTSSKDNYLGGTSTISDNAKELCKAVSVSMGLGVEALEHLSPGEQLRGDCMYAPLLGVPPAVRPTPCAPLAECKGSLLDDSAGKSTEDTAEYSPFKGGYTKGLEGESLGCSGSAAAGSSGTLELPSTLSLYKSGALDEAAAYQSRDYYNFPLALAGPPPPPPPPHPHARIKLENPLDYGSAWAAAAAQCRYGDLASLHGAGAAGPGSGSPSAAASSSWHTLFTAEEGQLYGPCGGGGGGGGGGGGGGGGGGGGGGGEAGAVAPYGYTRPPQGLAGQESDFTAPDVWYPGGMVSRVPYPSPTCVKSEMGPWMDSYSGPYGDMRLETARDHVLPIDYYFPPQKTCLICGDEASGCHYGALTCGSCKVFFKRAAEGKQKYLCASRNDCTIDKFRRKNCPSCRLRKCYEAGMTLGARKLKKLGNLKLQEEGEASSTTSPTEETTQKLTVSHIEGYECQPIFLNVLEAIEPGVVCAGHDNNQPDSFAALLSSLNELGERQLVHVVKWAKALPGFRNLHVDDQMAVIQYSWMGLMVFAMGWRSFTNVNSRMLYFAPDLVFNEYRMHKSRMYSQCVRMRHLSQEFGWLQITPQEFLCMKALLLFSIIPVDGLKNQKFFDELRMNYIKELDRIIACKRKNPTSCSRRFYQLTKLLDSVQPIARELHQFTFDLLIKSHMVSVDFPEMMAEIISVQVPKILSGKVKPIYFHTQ
# Outline: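 HEK293 cells stably carrying a UAS-driven beta-lactamase reporter (AR-UAS-bla GripTite) were plated for 4 h at 37C, then given compound and the agonist R1881 and incubated 16 h. Reporter activity was read by LiveBLAzer B/G FRET fluorescence after 2 h at room temperature.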
# [11] = qHTS assay to identify small molecule antagonists of the thyroid receptor (TR) signaling pathway - cell viability counter screen (AID 743064); settings: GH3.TRE-Luc viability, CellTiter-Fluor, 24 h; activity change, negative = cytotoxic: at 70.3 µM (top of the series) unless noted; also: nearly all actives have a fitted effect of over 50% in size; also: potency is read from the fitted curve at half-maximal effect
# Outline: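 GH3.TRE-Luc cells, 4 h pre-plating; cpd + T3 1 nM final; 37 °C 23.5 h; CellTiter-Fluor 30 min; fluorescence read.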
# [12] = qHTS assay to identify small molecule antagonists of the thyroid receptor (TR) signaling pathway (AID 743065); also: potency is read from the fitted curve at half-maximal effect; nearly all actives have a fitted effect of over 55% in size
# Outline: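 Antagonism measured as loss of luciferase signal in GH3 cells stably carrying a TRE-luciferase reporter, co-treated with compound and T3 (1 nM final) for 23.5 h at 37 C. Viability was read in the same well by CellTiter-Fluor.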
# Tags tell the direction and shape of the fitted curve or compound fluorescence and quenching.
structure (smiles),measurement,setting,value
CC(C)COC(=O)C(C)C,Potency,[1],"inconclusive: 77 µM [rising, single point]"
same,Potency,[2],inactive
same,Potency,[3],inactive
Cc1ccc(Cl)cc1N,Potency,[4],inactive
COC(=O)CCCCCCCC(=O)OC,Potency,[1],"inconclusive: 68.6 µM [cytotoxic, single point]"
same,Potency,[5],inactive
Nc1ccc(C(=O)O)cc1,Potency,[1],"inconclusive: 54.2 µM [rising, partial curve, poor fit]"
same,Potency,[2],"inconclusive: 48.7 µM [cytotoxic, partial curve, poor fit]"
same,Potency,[6],"inconclusive: 11.9 µM [rising, partial curve, poor fit]"
Cc1cc(-n2nc3ccc(Cl)cc3n2)c(O)c(C(C)(C)C)c1,Potency,[1],inactive
same,Potency,[7],inactive
CNC1CCCN(c2c(F)cc3c(=O)c(C(=O)O)cn(C4CC4)c3c2OC)C1 (configuration not stated),Potency,[1],"inconclusive: 37.6 µM [rising, partial curve, poor fit]"
same,Potency,[2],inactive
C=CC(C)(CCC=C(C)C)OC(=O)CC (configuration not stated),Potency,[4],"inconclusive: 68.6 µM [cytotoxic, single point]"
O=CNNC=O,Potency,[4],"inconclusive: 62 µM [rising, partial curve, poor fit]"
O=C(O)c1ccc(OCCCOc2ccc(C(=O)O)cc2)cc1,Potency,[4],"inconclusive: 26.6 µM [rising, partial curve, poor fit]"
Cc1ccc(C(=O)O)cc1,Potency,[4],inactive
C=C(C)C(=O)OCCC(F)(F)C(F)(F)C(F)(F)C(F)(F)C(F)(F)C(F)(F)F,Potency,[4],"inconclusive: 34.4 µM [cytotoxic, full curve, poor fit]"
CC(C)[C@@H]1CC[C@@H](C)CC1=O,Potency,[4],"inconclusive: 16.8 µM [rising, partial curve, poor fit]"
NCC1(Cc2noc(=O)[nH]2)CCCCC1,Potency,[1],"inconclusive: 15.4 µM [rising, partial curve, poor fit]"
same,Potency,[5],inactive
CSSc1ccoc1C,Potency,[4],active: 34.2 µM
CC(C)CC(=O)N[C@H](C(=O)N[C@H](C(=O)N[C@@H](CC(C)C)[C@@H](O)CC(=O)N[C@@H](C)C(=O)N[C@@H](CC(C)C)[C@@H](O)CC(=O)O)C(C)C)C(C)C,Potency,[4],"inconclusive: 29.8 µM [rising, partial curve, poor fit]"
O=P(O)(O)Oc1ccccc1,Potency,[4],inactive
CC[C@H](C)[C@H](N)C(=O)O,Potency,[4],"inconclusive: 33.5 µM [rising, partial curve, poor fit]"
CCN(CC)C(=O)N(CC)CC,Potency,[4],"inconclusive: 38.6 µM [cytotoxic, partial curve, poor fit]"
Cc1cc([N+](=O)[O-])ccc1N,Potency,[1],inactive
same,Potency,[2],"inconclusive: 7.66 µM [rising, full curve]"
same,activation,[5],inconclusive: 11.4% [phenotype inactive]
CCCCOC(=O)CO,Potency,[4],"inconclusive: 9.69 µM [cytotoxic, partial curve, poor fit]"
COc1cc(C(=O)N2CCOCC2)cc(OC)c1OC,Potency,[4],"inconclusive: 29.8 µM [rising, partial curve, poor fit]"
O=c1cc(O)c(Cl)c[nH]1,Potency,[4],"inconclusive: 15 µM [rising, partial curve, poor fit]"
Nc1ccncc1N,Potency,[4],"inconclusive: 21.1 µM [rising, partial curve, poor fit]"
CC(C)(CO)[C@@H](O)C(=O)NCCCO,Potency,[4],inactive
BrCCOc1ccccc1,Potency,[4],"inconclusive: 6.13 µM [cytotoxic, full curve]"
[O-]/[N+](=N\O)c1ccccc1,Potency,[1],"inconclusive: 6.8 µM [rising, full curve, poor fit]"
same,Potency,[8],active: 55 µM [activator]
same,activation,[5],inconclusive: 13.4% [phenotype inactive]
COc1ccc(NC(=O)CC(C)=O)cc1,Potency,[4],inactive
CCCCCCC(O)CCOC(C)=O (configuration not stated),Potency,[4],"inconclusive: 181 µM [cytotoxic, single point]"
Cc1cc(=O)n(-c2ccccc2)n1C,Potency,[1],"inconclusive: 28 µM [rising, single point]"
same,Potency,[2],"inconclusive: 40 µM [cytotoxic, partial curve, poor fit] and inconclusive: 24.5 µM [cytotoxic, single point]"
same,Potency,[3],inactive
NC(=O)c1cnccn1,"activity change, negative = cytotoxicity",[1],inconclusive: 22.1%
same,Potency,[8],"inconclusive: 54.2 µM [activator, partial curve, poor fit]"
same,activation,[5],inconclusive: -5.39% [phenotype inactive]
[Cl][Nd]([Cl])[Cl],Potency,[1],"inconclusive: 13.7 µM [rising, partial curve, poor fit]"
same,Potency,[2],inactive
same,Potency,[3],inactive
O=c1[nH]c(=O)c2[nH]c(=O)[nH]c2[nH]1,Potency,[4],"inconclusive: 15 µM [rising, partial curve, poor fit]"
CC[C@@H](CO)NCCN[C@@H](CC)CO,Potency,[4],"inconclusive: 6.39 µM [rising, partial curve, poor fit]"
NC(=O)/N=N/C(N)=O,Potency,[1],"inconclusive: 2.74 µM [rising, single point]"
same,Potency,[2],"inconclusive: 49.1 µM [rising, partial curve, poor fit] and inconclusive: 43.6 µM [rising, partial curve, poor fit]"
same,Potency,[6],inactive
CCCCCCCCCC(=O)O,Potency,[4],"inconclusive: 33.5 µM [cytotoxic, single point] and inconclusive: 77 µM [cytotoxic, single point] and inconclusive: 72.3 µM [cytotoxic, single point]"
same,Potency,[9],"inconclusive: 33.5 µM [cytotoxic, single point]"
same,Potency,[10],"inconclusive: 13.8 µM [falling, partial curve, poor fit]"
same,"activity change, negative = inhibition",[10],inconclusive: -26% [at 78.9 µM]
same,Potency,[11],"inactive and inconclusive: 77 µM [cytotoxic, single point]"
same,Potency,[12],"inconclusive: 61.2 µM [inhibitor, partial curve, poor fit] and inconclusive: 72.3 µM [inhibitor]"
same,Potency,[2],"inconclusive: 34.7 µM [cytotoxic, partial curve]"
same,Potency,[7],"inconclusive: 6.68 µM [rising, full curve, poor fit]"
